Reference: PubChem BioAssay AID624417 (National Center for Advancing Translational Sciences (NCATS), 2012)
Among all 410,000 compounds or so, about 6,400 (1.6%) were called active. The shares of active, inactive and inconclusive entries below differ from those in the screen. The call rests on the fitted dose curve; in most records, active means well fitted inhibition curve with a large enough effect; inconclusive means small, poorly fitted or top-dose-only effect; inactive means no such curve, though single readings can be large or run the other way. Potencies of inconclusive entries are left out as doubtful fits.

Target: Glucagon-like peptide 1 receptor (Homo sapiens) (UniProt P43220)
Assay: qHTS of GLP-1 Receptor Inverse Agonists (Inhibition Mode); further: nearly all actives have a fitted effect of over 55% in size
Settings: HEK293 GLP-1R CRE-luciferase, luminescence, 24 h, GLP-1R form is constitutively active; series mostly up to 38.3 µM
Summary of the method: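 Cells are plated, allowed 12 hours at 37 deg C, then treated with compounds for 24 hr before luciferase detection reagent is added and luminescence is read after 12 min at room temperature. The HEK293 line carries constitutively active GLP-1R with a cAMP-responsive reporter.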
Potency means the concentration at half of the fitted maximal effect; tags describe the fitted curve by direction and shape.

Sequence of UniProt P43220 (P43220 whole entry, looked up): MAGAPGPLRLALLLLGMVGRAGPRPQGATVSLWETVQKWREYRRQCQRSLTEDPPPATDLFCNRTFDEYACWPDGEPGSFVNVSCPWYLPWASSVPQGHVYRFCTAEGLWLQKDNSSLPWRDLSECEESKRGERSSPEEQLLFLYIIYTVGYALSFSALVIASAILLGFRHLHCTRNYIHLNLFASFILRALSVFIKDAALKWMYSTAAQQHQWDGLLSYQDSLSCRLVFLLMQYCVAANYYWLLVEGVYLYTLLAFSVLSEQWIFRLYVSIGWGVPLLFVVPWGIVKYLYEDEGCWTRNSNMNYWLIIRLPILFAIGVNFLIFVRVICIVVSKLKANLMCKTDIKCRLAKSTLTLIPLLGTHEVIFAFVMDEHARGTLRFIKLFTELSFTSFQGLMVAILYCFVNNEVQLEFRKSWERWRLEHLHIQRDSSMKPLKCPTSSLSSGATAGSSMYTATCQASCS

| Compound | Potency |
| --- | --- |
| Cc1ccccc1OCc1ccc(-c2nc(C#N)c(N3CCCCC3)o2)o1 | inconclusive [inhibitor, partial curve] |
| COc1ccccc1NC(=O)C(C)N(C)Cc1ccc(Cl)s1 (configuration not stated) | inconclusive [inhibitor, partial curve, poor fit] |
| Cc1ccc(N(CC(=O)Nc2cc(Cl)ccc2Oc2ccccc2)S(C)(=O)=O)cc1C | inconclusive [inhibitor, partial curve, poor fit] |
| CSc1ccc(CNC(=O)c2ccc3c(c2)N(C)C(=O)C2CCCCN32)cc1 (configuration not stated) | inactive |
| O=S(=O)(c1ccccc1)c1ccc(N2CCCCCC2)cc1 | inconclusive [inhibitor, single point] |
| CCN(CC)c1ccc2cc(-c3nc(-c4ccccc4)no3)c(=O)oc2c1 | inactive |
| COc1ccc(CN2C(=S)NC(C)(C)CC2(C)O)cc1 (configuration not stated) | inconclusive [inhibitor, single point] |
| Cc1cscc1-c1ccc(C(=O)Nc2c(C)cccc2C)o1 | inconclusive [inhibitor, single point] |
| CCCCNc1ncnc2c1cnn2-c1ccc(Cl)cc1 | inconclusive [inhibitor, full curve, poor fit] |
| CC(NC(=O)C(=O)N1CCCCC1)C(c1cccs1)N1CCN(c2ccc(F)cc2)CC1 (configuration not stated) | inconclusive [inhibitor, partial curve, poor fit] |
| CN1CCN(S(=O)(=O)c2cccc(C(=O)Nc3ccccc3N3CCCC3)c2)CC1 | inconclusive [inhibitor, partial curve, poor fit] |
| Cc1ccc2c(c1)C(c1ccccc1)N(C(=O)c1ccc(Br)o1)CC(=O)N2 (configuration not stated) | inconclusive [inhibitor, partial curve, poor fit] |
| COc1ccccc1-c1csc(C(C)(O)c2cccc(F)c2)n1 (configuration not stated) | inconclusive [inhibitor, partial curve] |
| Cc1ccc(C(=O)NCc2cccc(C(F)(F)F)c2)cc1S(=O)(=O)N1CCCCC1 | inconclusive [inhibitor, partial curve, poor fit] |
| O=C(NNC(=S)NC1CC2CCC1C2)c1ccc(Cl)cc1 (configuration not stated) | inconclusive [inhibitor, single point] |
| CN1CCCC1CCNc1ccc2c(=O)c3ccccc3oc2c1 (configuration not stated) | inconclusive [inhibitor, single point] |
| COc1ccc(OC)c(NC(=O)c2cccc(S(=O)(=O)N(Cc3ccccc3)c3ccccc3OC)c2)c1 | inactive |
| COC(=O)c1c(C)[nH]c(C(=O)/C=C/c2ccc(Cl)cc2)c1C | inconclusive [inhibitor, partial curve, poor fit] |
| Fc1ccc(NC(=S)NN2CCOCC2)cc1Cl | inactive |
| CCOC(=O)C(CSCc1ccccc1)NC(=O)OC(C)(C)C (configuration not stated) | inconclusive [inhibitor, partial curve, poor fit] |
| CCCCc1c(O)nc(SCC(=O)Nc2cccc3ccccc23)n(-c2ccccc2OC)c1=O | inconclusive [inhibitor, full curve, poor fit] |

| Compound | Potency |
| --- | --- |
| O=C(NCc1nnnn1-c1ccccc1)c1ccc2ccccc2c1 | inactive |
| O=S(=O)(c1ccc(Br)cc1)n1ccc2ccccc21 | inconclusive [inhibitor, single point] |
| COc1ccc2c(c1)OC[C@H]1[C@H]2N2C(=O)c3ccc(F)cc3NC(=O)[C@@]2(C)[C@H]1c1ccccc1 | inconclusive [inhibitor, single point] |
| COC(=O)[C@@]12C[C@@H](CC(=O)NCCc3ccccc3OC)C(=O)N(CCc3ccc(OC)c(OC)c3)C1=CCC(C)(C)C2 | inconclusive [inhibitor, single point] |
| O=C(c1ccc(Cl)cc1)C1CCN(C(=O)c2ccc(F)cc2)CC1 | inconclusive [inhibitor, partial curve] |
| CNC(=O)NC(=O)CSc1ccc(S(=O)(=O)N(C)C2CCCCC2)cn1 | inactive |
| Cc1nc2sc(C(c3ccco3)N3CCN(C(c4ccccc4)c4ccccc4)CC3)c(O)n2n1 (configuration not stated) | inconclusive [inhibitor, partial curve, poor fit] |
| CCCCn1nnnc1C(c1cc2ccccc2o1)N1CCOCC1 (configuration not stated) | inactive |
| COc1ccccc1N(CC(=O)NC1CCCC1)S(=O)(=O)c1cccc(C(F)(F)F)c1 | inconclusive [inhibitor, single point] |
| O=C(NCc1ccccc1)C(C1CC1)n1c(Cc2cc(F)cc(F)c2)nc2ccccc21 (configuration not stated) | inconclusive [inhibitor, single point] |
| CCOc1ccc(Oc2ccccc2NC(=O)C2=COCCO2)cc1 | inconclusive [inhibitor, single point] |
| COc1cccc(NC(=S)N2CCC(c3ccc(C)cc3)C2)c1 (configuration not stated) | inconclusive [inhibitor, partial curve, poor fit] |
| Cc1nc2ccc(S(=O)(=O)NCC(=O)N3CCC(C)CC3)cc2s1 | inconclusive [inhibitor, full curve, poor fit] |
| CCOC(=O)c1ccc(NC(=O)CC2Nc3cc(C)c(C)cc3NC2=O)cc1 (configuration not stated) | inconclusive [inhibitor, partial curve, poor fit] |
| Cc1cccc(C(=O)N[C@H](C(=O)NCCc2ccc(S(N)(=O)=O)cc2)C(C)C)c1 | inconclusive [inhibitor, single point] |
| S=C(NCCC(c1ccccc1)c1ccccc1)Nc1cccc(Cl)c1 | active: 11.2 µM |
| CC(/C=N/NC(=O)CSc1nc2ccccc2n1C)=C\c1ccco1 | inactive |
| CCOc1ccc(NC(=O)c2cc(Cl)nc3ccccc23)cc1 | inconclusive [inhibitor, partial curve, poor fit] |
| COc1cccc(CNc2nc3cc(-c4csc5ccccc45)sc3c(=O)n2C)c1 | inactive |
| O=C(Cn1c(=S)[nH]c2ccccc2c1=O)N1CCN(c2ccc(F)cc2)CC1 | inconclusive [inhibitor, single point] |
| CCN(c1cccc(C)c1)S(=O)(=O)c1ccc2c(c1)CCCN2C(C)=O | inconclusive [inhibitor, partial curve, poor fit] |

| Compound | Potency |
| --- | --- |
| c1ccc2oc(SCc3cn4ccsc4n3)nc2c1 | inconclusive [inhibitor, single point] |
| COc1ccc(NC(=O)c2nn(C)c3c2CSc2ccc(C)cc2-3)cc1OC | inconclusive [inhibitor, single point] |
| Cc1ccc(CNS(=O)(=O)c2ccc(Br)s2)cc1 | inconclusive [inhibitor, partial curve, poor fit] |
| Cc1cc2ccccc2n1CCNC(=O)Cc1cccc2ccccc12 | inconclusive [inhibitor, partial curve, poor fit] |
| CC1(C)OC(=O)C2=C(C[C@@H](C3CCCC3)O[C@H]2CCc2cccc(Cl)c2)O1 | inconclusive [inhibitor, single point] |
| CCCCc1ccc(NC(=S)NCc2cccnc2)cc1 | inconclusive [inhibitor, partial curve, poor fit] |
| O=C(N/N=C/c1cccc2nccnc12)c1ccccc1O | inconclusive [inhibitor, single point] |
| COc1ccccc1N1CCN(CC(=O)Nc2ccc(S(=O)(=O)N3CCCCCC3)cc2)CC1 | inconclusive [inhibitor, partial curve] |
| Cc1ccc(C2Nc3ccccc3-n3c(-c4ccccc4)c4c(=O)n(C)c(=O)n(C)c4c32)cc1 (configuration not stated) | inactive |
| CCOC(=O)N1CCN(C(=O)C[C@@H]2C[C@@]3(C(=O)OC)CC(C)(C)CC=C3N(Cc3ccccc3)C2=O)CC1 | inconclusive [inhibitor, single point] |
| CCCOc1ccc(F)cc1-c1cc(C(=O)Nc2ccc(OC)c(OC)c2)[nH]n1 | inconclusive [inhibitor, partial curve, poor fit] |
| COC(=O)c1sccc1S(=O)(=O)N(CC(=O)Nc1cc(C)cc(C)c1)c1ccc(Cl)cc1 | inconclusive [inhibitor, partial curve, poor fit] |
| C=Cc1ccc(CC2(C)C(=O)Nc3ccc(Cl)cc32)cc1 (configuration not stated) | inconclusive [inhibitor, partial curve] |
| O=C(NCCc1ccccn1)c1c(-c2ccsc2)sc2ccccc12 | inconclusive [inhibitor, partial curve] |
| CCC(C(=O)N/N=C(\C)c1cccnc1)c1ccccc1 (configuration not stated) | inconclusive [inhibitor, single point] |
| CC(=O)Nc1ccc(S(=O)(=O)N(C)c2ccc(OCCOc3cccc(C)c3)cc2)cc1 | inconclusive [inhibitor, partial curve, poor fit] |
| COc1ccc(CNC(=O)CN2C(=O)COc3ccc(S(=O)(=O)N4CCCCCC4)cc32)cc1 | inactive |
| CCn1c2ccc(C)cc2c2nnc(SCCN3CCCCC3)nc21 | inconclusive [inhibitor, partial curve] |
| CC(C)c1ccc(NC2CCCN(C(=O)c3ccco3)C2)cc1 (configuration not stated) | inconclusive [inhibitor, partial curve] |
| CCCCn1nnnc1C(c1ccnc2ccccc12)N1CCN(C/C=C/c2ccccc2)CC1 (configuration not stated) | inconclusive [inhibitor, partial curve, poor fit] |
